Variants at the background level are over-represented here.
B1: TPR 5TU (parent)
chain: GGAUCUUCUCGAUCUAACAAAAAAGACAAAUCUGCCACAAAGCUUGAGAGCAUCUUCGGAUGCAGAGGCGGCAGCCUUCGGUGGCGCGAUAGCGCCAACGUUCUCAACUAUGACACGCAAAACGCGUGCUCCGUUGAAUGGAGUUUAUCAUG

Variants of: B1
Test: polymerase ribozyme fitness, log enrichment relative to wild type (log ratio); higher = more active; in vitro selection for triplet polymerase activity
Method in brief: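 Only genotypes with ≥10 input reads and ≥1 read per output were kept after Illumina sequencing of input and output libraries. These libraries were PCR-built, transcribed mutants of each subunit of a heterodimeric triplet polymerase ribozyme, each put through one triplicate in vitro selection round with frozen incubation at −7 °C, gel excision of extended constructs, streptavidin-bead capture and RT-PCR. Fitness is a logarithmic ratio of genotype enrichment to wild-type enrichment, from inverse-variance-weighted replicate averages, with the logarithm in base 2.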

Variant	polymerase ribozyme fitness (log ratio)
G59A G80A C87A	≤ -4.2
G59A G80C	≤ -4.2
G59A G80U U127G	≤ -4.2
G59A G81U G86A A119U C131U U148A U151A	≤ -4.2
G59A G83C A89U	-1.39
G59A G84U U104G A122G U134A	≤ -4.2
G59A G86C G126C A150G	≤ -4.2
G59A G86U A91G C116A G141U U145A	≤ -4.2
G59A G88A	-4.04
G59A G88U	-3.96
G59A G88U C116G	-3.56
G59A G92C	-2.78
G59A G92U U104C A121C	-2.09
G59A G94A U130G A150G	≤ -4.2
G59A G140C U144G	-3.79
G59A U77A U101G A120C A121U U148C	≤ -4.2
G59A U78G A91U U102G	≤ -4.2
G59A U82G C87U G92U A98U G136U	≤ -4.2
G59C A60C A66G C93A U144A C149G	≤ -4.2
G59C A60U G68A C75A C108A	-4.15
G59C A60U G68A U77G G94C A110U A147G	≤ -4.2
G59C A64C	≤ -4.2
G59C A64G C87A A115U U127G	≤ -4.2
G59C A64U C75U C132U	≤ -4.2

Variant	polymerase ribozyme fitness (log ratio)
G59C A66U C87U U102G C116A	≤ -4.2
G59C A73G G86U	-2.26
G59C A73U G136A A137C U148A	≤ -4.2
G59C A89U C96G A107G	≤ -4.2
G59C A89U G92C A121G	-2.45
G59C A97U	-0.431
G59C C63G C69G G74A A89C C103G G141C	≤ -4.2
G59C C69U C93G G100A G124U	≤ -4.2
G59C C75A G84A A122C	≤ -4.2
G59C C75U A98U	-0.152
G59C C76A C87G	≤ -4.2
G59C C76A C96G A107G	≤ -4.2
G59C C79G A137U G141A	≤ -4.2
G59C C79U	-3.43
G59C C85G A89U G92A	≤ -4.2
G59C C85U	-0.507
G59C C87A	≤ -4.2
G59C C87U G94U C96G G100U G136C G140A	≤ -4.2
G59C C93G	-2.98
G59C C93G A97U U127C A137G	≤ -4.2
G59C C93U	-1.11
G59C C93U C95U U135G U146A	≤ -4.2
G59C C95A	-0.188
G59C C95G C103U G126A	-2.28

Variant	polymerase ribozyme fitness (log ratio)
G59C C95U A110G C116A	-3.2
G59C C96A U139C A142G	≤ -4.2
G59C C96G C103G C114U G124U U135C	≤ -4.2
G59C C99U A119C A137C C149G	≤ -4.2
G59C C103U	0.229
G59C G62U G86A C87U	≤ -4.2
G59C G67A C85A G112U	≤ -4.2
G59C G67C G94U C96U	≤ -4.2
G59C G68C C79U G94C U135A U139A G152C	≤ -4.2
G59C G68U C93G	≤ -4.2
G59C G83A	-0.754
G59C G83A C87A A137U G140U	≤ -4.2
G59C G83A C103U A122G	-0.809
G59C G83U	0.0759
G59C G84U G100A U135C A137C	≤ -4.2
G59C G86A G112U	≤ -4.2
G59C G86C C96U A121U	-3.29
G59C G86C G143U	≤ -4.2
G59C G92C A107G A115G	≤ -4.2
G59C G92C G126A U130A	≤ -4.2
G59C G92U C105A C125A C149U	≤ -4.2
G59C G94C	-0.253
G59C G126C	0.783
G59C G133U	-3.47

Variant	polymerase ribozyme fitness (log ratio)
G59C U61A A64C	≤ -4.2
G59C U77A C85G A107U	≤ -4.2
G59C U77A C96G C105U G140A	≤ -4.2
G59C U77G C87U A89U C149U	≤ -4.2
G59C U78C C85A U144A A150U	≤ -4.2
G59C U90G	≤ -4.2
G59C U109G	-0.84
G59C U111G G126U U146C G152C	≤ -4.2
G59U A64G A89G A107C	≤ -4.2
G59U A73C U78G C87U A91U C118U A119U U130A	≤ -4.2
G59U A91U G126C G141C C149U	≤ -4.2
G59U A97C C99G	-3.18
G59U A107C A121U	-3.86
G59U A107U U127A	≤ -4.2
G59U C69U G86A C95G A107U	≤ -4.2
G59U C72A C75A C87U C93G	≤ -4.2
G59U C72U C87U U134A A137U	≤ -4.2
G59U C75G G88A U144A	≤ -4.2
G59U C76A G88A U104G	≤ -4.2
G59U C85G A113U C125G	≤ -4.2
G59U C85G A119U G128A	-4.19
G59U C85G C87G G141C U151A	≤ -4.2
G59U C85U A150U	1.1
G59U C87A	≤ -4.2

Variant	polymerase ribozyme fitness (log ratio)
G59U C87G C95U U101G C149G	≤ -4.2
G59U C93A C114U U127G A138U	≤ -4.2
G59U C96U	-0.292
G59U G65A C114A C118U U134C U148A	≤ -4.2
G59U G65C C79A	≤ -4.2
G59U G67A G92U	-3.83
G59U G67C G136A	≤ -4.2
G59U G68A	≤ -4.2
G59U G68A C96U	≤ -4.2
G59U G80A	-0.046
G59U G81A C85G A106C	-3.51
G59U G86A C118G	-2.48
G59U G88C U151G	≤ -4.2
G59U G88U A121U U127A U134G	≤ -4.2
G59U G94U C105U G124U G143C	-3.65
G59U U77G C79G C95G U135C G143C	≤ -4.2
G59U U78G C93G C96U G143U U146C U151G	≤ -4.2
G59U U90C U101G U104C A142U	≤ -4.2
G59U U130C G141C A150G	≤ -4.2
A60C A64U C75A A110C	≤ -4.2
A60C A64U C93U C132A A142G	≤ -4.2
A60C A66C C96A A110U U144G	≤ -4.2
A60C A73G G84A C123A G128U	≤ -4.2
A60C A89C G94A	-1.69

Variant	polymerase ribozyme fitness (log ratio)
A60C A91U	≤ -4.2
A60C A97U	-1.64
A60C A98G C131A	≤ -4.2
A60C A119U C129A	≤ -4.2
A60C A120U A137C G140U	≤ -4.2
A60C C69G G74A C95U C99G	≤ -4.2
A60C C72G C93A C95U	≤ -4.2
A60C C72U G141A A142U	≤ -4.2
A60C C76G A120U	≤ -4.2
A60C C76U	-3.17
A60C C76U A89G C114U G141U	≤ -4.2
A60C C76U G80C G117U C123A	≤ -4.2
A60C C79G C85U U90G G94U C149U	≤ -4.2
A60C C79U U102A C103A A142G	≤ -4.2
A60C C85A G124C	-2.54
A60C C85G C149G	≤ -4.2
A60C C85U	-1.01
A60C C93A A107G U127A	≤ -4.2
A60C C93A U104A A115C G133U	≤ -4.2
A60C C93G C105G	≤ -4.2
A60C C93U	-2.64
A60C C96G C99U	≤ -4.2
A60C C96U A142C G143A	≤ -4.2
A60C C99G U101G	≤ -4.2

Variant	polymerase ribozyme fitness (log ratio)
A60C G65U C132A	-4.19
A60C G67C C85U G141A	≤ -4.2
A60C G70C C99A A121U	≤ -4.2
A60C G74A G136A	≤ -4.2
A60C G81A C87A G133C G143A U148A	≤ -4.2
A60C G81A G88C	≤ -4.2
A60C G81C C87A	≤ -4.2
A60C G84U	-2.22
A60C G92U	-0.296
A60C G94C A97G A98G U134C	-3.8
A60C U61A G62C G68C C96G C108G A113U	≤ -4.2
A60C U61C G83A A89U C99U A106U A121G A122G	≤ -4.2
A60C U61G G92A A110U	-3.93
A60C U77C C87A A98U U139A	≤ -4.2
A60C U82A C99A C132A A142G	≤ -4.2
A60C U82A U104A C108G	≤ -4.2
A60G A64C C99G	≤ -4.2
A60G A66C C93U U145A	≤ -4.2
A60G A73G C85A	-2.02
A60G A91U A113G U151C	≤ -4.2
A60G A97C A98G U102A G133U	≤ -4.2
A60G A107U	-3.1
A60G A107U C131G	≤ -4.2

From the RNAGym collection of RNA variant scans (doi:10.1073/pnas.2313332121)
